Experimental findings from PubChem BioAssay AID1346428 (National Center for Advancing Translational Sciences (NCATS), 2018) are described below.

In all, about 48,000 compounds went through this assay and about 1,200 (2.5%) were called active. Another 2% or so got no clear call; they are omitted.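 The calls were made as follows: active = activation of at least 60% and not above a set upper limit (about 1 call in 100 departs from these limits); inconclusive = activation of 40% to 60%, or above that upper limit; inactive = activation under 40%.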 This is one part of the list.

UniProt O75388, sequence (O75388 whole entry, looked up): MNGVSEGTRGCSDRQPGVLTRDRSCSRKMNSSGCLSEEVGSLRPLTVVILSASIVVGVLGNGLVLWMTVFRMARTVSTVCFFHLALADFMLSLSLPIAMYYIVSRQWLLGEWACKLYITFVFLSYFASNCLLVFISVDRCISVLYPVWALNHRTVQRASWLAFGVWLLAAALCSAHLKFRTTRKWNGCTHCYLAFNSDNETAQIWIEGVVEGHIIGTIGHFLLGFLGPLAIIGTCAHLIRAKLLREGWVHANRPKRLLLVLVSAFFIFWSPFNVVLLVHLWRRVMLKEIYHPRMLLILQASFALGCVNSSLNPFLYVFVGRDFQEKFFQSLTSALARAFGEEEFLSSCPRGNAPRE

The test addresses Probable G-protein coupled receptor 32 (Homo sapiens) (UniProt O75388). In words: qHTS for Agonists of Human Resolvin D1 Receptor DRV1. Conditions: CHO-K1 GPR32 beta-arrestin PathHunter luminescence, 90 min; at 76.9 µM; hits give high values; zero percent set by DMSO-only wells. The method, boiled down:
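Using DMSO wells as EC0, agonist-induced signal was taken as chemiluminescence from beta-Gal reconstituted upon beta-arrestin recruitment to GPR32 in CHO-K1 cells after 90 min compound treatment.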
In general terms: Quantitative high-throughput screening tests each substance at several concentrations.
Take `Nc1c(C(=O)Nc2ccc(OC(F)(F)F)cc2)sc2nc(-c3ccncc3)ccc12`: the activation was inactive: -20%.

As to `Cc1nn2c(=O)cc(COC(=O)Cc3ccccc3)nc2s1`, the activation is inactive: -11.2%.

`COC(=O)c1c(NC(=O)c2nc(SCc3ccc(F)cc3)ncc2Cl)sc2c1CCCC2`: the activation is inactive: -2.52%.

As for `Cn1nnnc1SCCCNCc1cc(Cl)ccc1OCc1ccc(F)cc1`, the activation is inactive: 18.1%.

`CC(C)NCCCC1(C(N)=O)c2ccccc2-c2ccccc21`: the activation was inactive: -29%.

Regarding `CCNC(=O)/C=C/c1cccc(Br)c1`, the activation was inactive: -18.2%.

For the compound `CCC1CN(C(=O)N2CCC(C(=O)Nc3ccccc3F)CC2)c2ccccc2O1` (stereo not given), the activation is inactive: -11.6%.

Turning to `Cc1ccc(C)c(N2CCN(c3c(CN4CCCC4)c(=O)oc4ccccc34)CC2)c1`, the activation is inactive: -57.6%.

`COc1ccccc1CNC(=O)c1ccc2nc(N3CCCCC3)sc2c1`: the activation is inactive: 6.23%.

On to `COc1ccc(NC(=O)CN2C(=O)COc3ccc(S(=O)(=O)N4CCCCCC4)cc32)cc1`, for which the activation was inactive: -20.8%.

Consider `Cc1ccc(CCNC(=O)c2ccc3c(Cl)c4c(nc3c2)CCCC4)cc1`, for which the activation was inactive: 36.8%.

`CCCC(=O)Nc1ccccc1OCc1cc(=O)n2cc(C)ccc2n1`: the activation was inactive: -5.3%.

Turning to `Cc1ccc(-n2c(=O)cc(N3CCN(c4ccccc4Cl)CC3)[nH]c2=O)cc1`, the activation was inactive: 1.97%.

`O=C(Nc1cccc(Cl)c1Cl)c1cc(S(=O)(=O)NCc2ccc3c(c2)OCO3)ccc1F`: the activation was inactive: 40.9%.

Regarding `O=c1[nH]c(=O)n(C2CCCCC2)c(O)c1C1=Nc2ccccc2SC(c2ccccc2)C1` (stereo not given), the activation is inactive: -3.51%.

Take `COc1ccc(OCC(=O)NCC(c2ccc(OC)cc2)N2CCCCC2)cc1` (stereo not given): the activation was inactive: 0.752%.

On to `COc1ccc(C2C(C(=O)Nc3cccnc3)=C(C)Nc3nc(-c4ccccc4)nn32)cc1OC` (stereo not given), for which the activation was inactive: -32.1%.

Take `Cc1cccc(OCC(=O)N(Cc2ccc(C(C)(C)C)cc2)Cc2ccco2)c1`: the activation is inactive: -4.17%.

`COc1ccccc1NC(=O)C1=C(C)Nc2nc(SCc3ccccc3Cl)nn2C1c1ccccn1` (stereo not given): the activation is inactive: 0.737%.

In the case of `CN(C)c1ccc(/C=C/c2noc(-c3ccccc3O)n2)cc1`, the activation is inactive: 0.753%.

Consider `C[C@@H]1C(=O)NC2=Nc3cccc(Cl)c3CN21`, for which the activation was inactive: -2.89%.

For the compound `O=c1c2ccccc2n2c(-c3ccc(Cl)cc3)nnc2n1CCc1ccccc1`, the activation is inactive: 8.45%.

As for `Cc1ccc(C(c2cccc(Br)c2)c2c(C)[nH]c3ccccc23)s1` (stereo not given), the activation is inactive: -40.8%.

For the compound `COc1cc(OC)cc(C(=O)N2CCN(C(=O)COc3ccccc3)CC2)c1`, the activation is inactive: 7.92%.

Turning to `CC(C)c1ccc(NC(=O)C(C)N(c2ccccc2)S(C)(=O)=O)cc1` (stereo not given), the activation was inactive: 37.1%.

As to `CSc1ccc(CCNS(=O)(=O)c2ccc3c(c2)C(C)(C)C(=O)N3C)cc1`, the activation is inactive: -3.99%.

Consider `CC(C)C(NS(=O)(=O)c1ccc2c(c1)oc(=O)n2C)C(=O)NCCc1ccccc1` (stereo not given), for which the activation was inactive: -7.51%.

In the case of `COc1cc(OC)c(NC(=O)N2CC3CCCN3c3ccccc32)cc1Cl` (stereo not given), the activation is inactive: -14.2%.

In the case of `COc1ccc(-c2nc(CSc3nnc(C)n4c3cc3occc34)c(C)o2)cc1OC`, the activation is inactive: -18.7%.

For `CCc1ccc(-n2nc(C)c3c(C)cc(=O)n(CC(=O)Nc4ccc(C(C)=O)cc4)c32)cc1`, the activation was inactive: -5.23%.

As for `Cc1ccc(C)c(CN2C(=O)c3ccccc3S(=O)(=O)c3ccc(C(=O)NCCCN4CCCC(C)C4)cc32)c1` (stereo not given), the activation was inactive: -18.3%.

For the compound `O=C(Cn1ncc2c3ccccc3n(Cc3ccc(F)cc3)c2c1=O)NCCC1=CCCCC1`, the activation is inactive: -6.2%.

Regarding `Cc1nn(C(=O)c2ccc(Cl)cc2)c(C)c1S(=O)(=O)N1CCOCC1`, the activation was inactive: 16.4%.

For `Cc1c(C(=O)Nc2ccc(C(C)C)cc2)sc2nc3n(c(=O)c12)CCC3`, the activation is inactive: 5.84%.

As to `CCC(CC)c1nn2c(=O)cc(COc3ccc(NC(=O)c4ccc(C)cc4)cc3)nc2s1`, the activation was inactive: 46.8%.

For the compound `Cc1ccc(CNc2ncnc3c2nnn3C)cc1`, the activation is inactive: -4.97%.

As to `Cc1cn2c(=O)cc(COC(=O)c3cccc(NC(=O)c4ccccc4Cl)c3)nc2s1`, the activation is inactive: -9.57%.

On to `CCc1ccc(CNC(=O)CN2C(=O)CSc3c2c(C)nn3-c2ccccc2)cc1`, for which the activation is inactive: -25.7%.

In the case of `COc1ccc(NC(=O)CC2C(=O)N(c3cccc(C)c3)C(=O)N2Cc2cccnc2)cc1` (stereo not given), the activation is inactive: -2.78%.

In the case of `O=C(Nc1ccc(F)c(Cl)c1)N1CC=C(c2c[nH]c3ccccc23)CC1`, the activation was inactive: -2.41%.

`CC(C)CCNC(=O)c1cc2cc(S(=O)(=O)N3CCCCC3)ccc2n1C`: the activation is inactive: 14.7%.

On to `Cn1c(=O)oc2cc(S(=O)(=O)N3CCCC(C(=O)NCc4ccc(F)cc4)C3)ccc21` (stereo not given), for which the activation was inactive: 12.7%.

Consider `CCC(=O)N1c2ccccc2CC1C(=O)NCCc1ccccc1` (stereo not given), for which the activation is inactive: 7.12%.

Turning to `O=C(NC1CCN(CCc2c[nH]c3ccccc23)CC1)c1ccccc1`, the activation is inactive: 7.49%.

Regarding `O=C(NCCc1ccccc1Cl)c1sc2ncccc2c1-n1cccc1`, the activation was inactive: 1.35%.

Turning to `COc1cccc(Cn2nnc3c(=O)[nH]c(C4CCN(C(=O)c5ccccc5Cl)CC4)nc32)c1`, the activation was inactive: -22.5%.

`Cc1ccc(N2CCN(C(=O)c3cnc(N4CCCCC4)c4ccccc34)CC2)c(C)c1`: the activation was inactive: -44.4%.

`COc1ccc(CNC(=O)CCCN2C(=O)COc3ccc(C)cc32)cc1`: the activation is inactive: -17.1%.

Turning to `CSc1ncc(Cl)c(C(=O)Nc2c(C(=O)Nc3cccc(Cl)c3)oc3ccccc23)n1`, the activation was inactive: 4.87%.

Take `CCC(=O)Nc1ccccc1-c1nc2ccccc2n(CC(=O)c2ccc(C)cc2)c1=O`: the activation is inactive: -1.86%.

Consider `O=C(NCc1ccccc1Br)c1cnc2sc(N3CCCCCC3)nn2c1=O`, for which the activation was inactive: -7.3%.

Regarding `CC1=C(C(N)=O)C(c2ccccc2Br)n2ncnc2N1` (stereo not given), the activation is inactive: 8.51%.

Regarding `COc1cc(OC)c(NC(=O)CCCn2nc(C)c3c(C)n(-c4ccccc4)nc3c2=O)cc1Cl`, the activation is inactive: -10.7%.

As to `CCOC(=O)c1ccc(NC(=O)CSc2c3c(nc4cc(Cl)ccc24)CCCC3)cc1`, the activation was inactive: -15.4%.

For `COc1ccc(-n2nc(C(=O)N3CCCC(C)C3)c3c4ccccc4n(C)c3c2=O)cc1Cl` (stereo not given), the activation is inactive: -8.47%.
